Assay results taken from the supplement of paper PMC3334620.
Whole data set: some 33,000 sequences, median “E-score (-0.5 to 0.5)” near -0.012, cut for the highest 2% near 0.29. The list shows a part of the results.

target: T1, Ybr033w (UniProt P38073); experiment: PBM E-score (8-mer binding enrichment) (E-score (-0.5 to 0.5)); higher = stronger / more preferred TF binding; most listed sequences are background and not binding sites; conditions: protein concentration: 200 nM; construct: GST-full length
T1 sequence: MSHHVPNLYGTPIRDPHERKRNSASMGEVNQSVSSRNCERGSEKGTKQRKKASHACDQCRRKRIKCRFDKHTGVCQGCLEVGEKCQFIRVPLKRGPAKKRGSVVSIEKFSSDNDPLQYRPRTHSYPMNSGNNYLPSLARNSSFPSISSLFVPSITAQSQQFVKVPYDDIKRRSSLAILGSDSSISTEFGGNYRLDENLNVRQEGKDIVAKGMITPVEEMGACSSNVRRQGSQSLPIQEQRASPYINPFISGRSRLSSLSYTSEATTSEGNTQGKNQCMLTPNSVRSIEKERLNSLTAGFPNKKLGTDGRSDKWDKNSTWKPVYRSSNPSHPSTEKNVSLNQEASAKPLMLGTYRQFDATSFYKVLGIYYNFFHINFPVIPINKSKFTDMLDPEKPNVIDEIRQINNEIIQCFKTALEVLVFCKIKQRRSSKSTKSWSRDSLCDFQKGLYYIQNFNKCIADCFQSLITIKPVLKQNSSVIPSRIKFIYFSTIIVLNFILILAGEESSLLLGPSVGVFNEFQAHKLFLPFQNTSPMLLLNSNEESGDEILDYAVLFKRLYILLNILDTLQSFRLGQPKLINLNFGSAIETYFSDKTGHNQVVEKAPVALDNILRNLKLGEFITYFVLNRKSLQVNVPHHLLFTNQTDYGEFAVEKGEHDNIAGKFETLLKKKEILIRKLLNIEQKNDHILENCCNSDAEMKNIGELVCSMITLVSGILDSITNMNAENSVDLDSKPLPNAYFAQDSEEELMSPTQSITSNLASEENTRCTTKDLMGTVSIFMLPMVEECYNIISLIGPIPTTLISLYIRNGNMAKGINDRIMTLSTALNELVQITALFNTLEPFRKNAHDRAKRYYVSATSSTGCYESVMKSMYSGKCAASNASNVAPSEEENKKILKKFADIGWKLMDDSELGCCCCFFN
Method in brief: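 Each ungapped eight-base word and its reverse complement, pooled, received an E-score from the Universal PBM Analysis Suite. Underlying scans, normalised with masliner, recorded fluorescent anti-GST bound to GST-tagged yeast transcription factors. These were applied at about 100-200 nM to universal all-10-mer Agilent arrays double-stranded by primer extension.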

| Sequence | PBM E-score |
| --- | --- |
| GTAACCAC | -0.255 |
| TGCGGCAA | -0.108 |
| ACGGTAGT | 0.126 |
| AAGGTGTC | 0.0112 |
| GCCCACAC | -0.102 |
| CGCAGGAG | -0.016 |
| AATAGGGG | -0.0543 |
| AAACGCTG | -0.223 |
| ATTAGGGA | -0.0481 |
| CTATGCTC | -0.163 |
| AGGCTTAC | -0.0447 |
| AAAAACGT | 0.201 |
| CGGCATAC | -0.0206 |
| AAGTTGTG | 0.121 |
| CACACGAC | -0.167 |
| AACAAATA | 0.285 |
| ATTACACG | 0.12 |
| AGGGTAAG | 0.0154 |
| AGATGAAT | 0.0744 |
| TAAACGCA | 0.122 |
| CCGGACTA | 0.0994 |
| TCCCACGA | 0.0793 |
| GCTAGGTA | -0.0571 |
| ACCACATA | 0.123 |
| GTGATCTA | 0.119 |

| Sequence | PBM E-score |
| --- | --- |
| CATACGTA | 0.131 |
| ACGCATCG | -0.117 |
| CTCTTTAA | 0.0502 |
| ATAACTCA | 0.0944 |
| GAACGTAC | -0.00429 |
| TCAATTAA | 0.252 |
| GGGCATAA | 0.0902 |
| ACTCTTGA | 0.0929 |
| GAACTCTA | 0.0293 |
| CGTTGGGC | -0.125 |
| GGAGCGAC | -0.179 |
| AGGCTGAT | -0.0692 |
| GCTCCCCC | -0.441 |
| CCAAAAAA | 0.332 |
| ATTAGGGC | -0.0995 |
| AATATCCC | 0.141 |
| ATTGAACC | 0.126 |
| CAAATGCG | 0.0942 |
| CATCGTTC | -0.144 |
| AACGTCAG | -0.153 |
| AGCCGCAC | 0.0151 |
| AACGCTGT | -0.0162 |
| GGGTCAAC | -0.0379 |
| TGAGGGCA | -0.136 |
| ACATCTAC | 0.0632 |

| Sequence | PBM E-score |
| --- | --- |
| GGGTTCGA | -0.186 |
| ATTCCTTG | -0.023 |
| TCCTACCA | -0.0821 |
| GCAGTTAA | 0.0188 |
| GAAGGAAA | -0.0344 |
| TAGCGTAA | 0.178 |
| AGGACGGG | -0.332 |
| CCTGACGA | 0.00681 |
| CGCCCTTC | -0.128 |
| CTAGCCTA | -0.104 |
| GGTACAAC | -0.0662 |
| AGTATTGC | 0.169 |
| CTCTGCGC | -0.118 |
| CCCTCTCG | -0.276 |
| CCAGGCAC | -0.0331 |
| CTCATTGC | 0.0277 |
| GAATTTCA | 0.244 |
| AGCCTCCA | -0.211 |
| ATTAGATA | 0.222 |
| TTCGGAAA | 0.248 |
| CAACCAAC | -0.205 |
| GGTGTCAA | -0.00748 |
| GAACTTCA | 0.0447 |
| GAGATAGC | -0.0429 |
| AGTGCCGA | -0.106 |

| Sequence | PBM E-score |
| --- | --- |
| CCCGCTAG | -0.0478 |
| CAGAGTTC | 0.0102 |
| GCTAAAAC | -0.0353 |
| CGCCTCAC | -0.0155 |
| ACAAACCC | -0.121 |
| CACCGGAG | -0.0552 |
| AGGGGAGC | -0.375 |
| AACAATAT | 0.375 |
| GGACGGCC | -0.397 |
| CTAATTAA | 0.133 |
| CTTAATGC | 0.116 |
| AAACGGTG | -0.00876 |
| AAACAATT | 0.273 |
| TACGCCCA | 0.0751 |
| CATCCTTC | -0.0759 |
| CGGTATAG | -0.197 |
| AGCTTCCC | -0.279 |
| AACCACTT | 0.103 |
| TGCTACAA | 0.161 |
| CATACAAC | 0.0804 |
| CCCCTCAG | -0.374 |
| AACCTGGA | 0.0558 |
| CTCCTACA | 0.0493 |
| CCGGATTC | -0.0449 |
| CCTTCGCC | -0.253 |

| Sequence | PBM E-score |
| --- | --- |
| ATGCTCAC | -0.0437 |
| ACATCTCC | 0.0694 |
| ATTCGCGG | 0.134 |
| AAGTCTAA | 0.0632 |
| TCTCATAA | 0.158 |
| TGTAGAAA | 0.167 |
| CGGGTCGC | -0.196 |
| TAGGTAAA | -0.0248 |
| CAATTTAG | 0.211 |
| ATGTGGTC | 0.0459 |
| TAAGTGCA | 0.0684 |
| AATCATAA | 0.24 |
| ACCCAAAT | 0.146 |
| GATAGGGA | -0.109 |
| AGACACTA | 0.121 |
| CCGCTACC | -0.0265 |
| ATTCCAAG | 0.146 |
| ATGTCCCA | -0.235 |
| GGATGCTA | 0.0156 |
| TACCTGCA | -0.0676 |
| ACCCCGCT | -0.198 |
| CACTCGGA | 0.18 |
| GAGAAAGC | 0.0939 |
| CCAGTTGA | -0.00251 |
| GATAGATC | 0.0692 |

| Sequence | PBM E-score |
| --- | --- |
| AACCACGT | -0.0215 |
| ACTCCTGA | -0.0893 |
| AGTACACG | 0.0246 |
| GACGCGTA | 0.0753 |
| GCTGATTA | 0.151 |
| AGAAACGG | 0.107 |
| CATACTAC | 0.188 |
| GGTAACAA | 0.235 |
| CAGCTCGA | -0.161 |
| AAGTTGTC | 0.0924 |
| AGTCGCCG | -0.0133 |
| AAAATTCT | 0.224 |
| GAAATCAC | 0.185 |
| CGGGGATC | -0.368 |
| CTGTTCCC | -0.213 |
| GCGTTTCA | -0.00856 |
| ACTGAAAG | 0.126 |
| GGTGTCCA | -0.0545 |
| CCAGCGTA | -0.176 |
| CCCTTGGA | 0.0124 |
| ATTACACC | 0.0746 |
| CTACGCAC | -0.0578 |
| CGTTACAC | 0.0514 |
| AGCTATGC | -0.167 |
| CAATGGCA | -0.0319 |

| Sequence | PBM E-score |
| --- | --- |
| CATCTGAC | -0.259 |
| CTACTTAC | 0.149 |
| AACTATCC | -0.0158 |
| AACAATTA | 0.366 |
| GGTGGGAC | -0.43 |
| GCCGAACC | -0.241 |
| AATTCTGT | 0.251 |
| AATCCGCG | 0.127 |
| ATGGCGCA | 0.0266 |
| CGATCGAA | 0.00591 |
| ACTATTTA | 0.235 |
| AGCCGGGG | -0.342 |
| CACATAGC | -0.032 |
| CCAGTACC | -0.105 |
| GAGTAGTA | 0.163 |
| CCTACCCG | -0.0231 |
| CAGCACTA | -0.0204 |
| GCTCCGAA | 0.0402 |
| AGTATTCC | 0.161 |
| GTGTTTGA | 0.191 |
| ACACTGAT | 0.00135 |
| TGTCCACA | 0.134 |
